Reference: the supplement of paper PMC5499739
Over roughly 16,000 sequences, “Z-score” has its median near -0.37; the highest 2% begin near 3.1. This is one part of the list.

The sequences below were run on RBM10 RRM1-ZnF-RRM2 (GST-tagged construct) (assay: RNAcompete 7-mer binding Z-score; higher = stronger binding preference).
Description: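 RNAcompete: 20 pmol GST-tagged RBM10 RNA-binding constructs were incubated with a designed RNA pool of about 241,000 sequences up to 41 nt (1.5 nmol) on glutathione beads for 30 min at 4 °C and washed. Bound RNAs were identified by microarray hybridisation. Each RNA 7-mer is scored by a one-sided Z-score of its enrichment, computed over probes that contain the 7-mer within longer pool sequences.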

| Sequence | RNAcompete 7-mer binding Z-score |
| --- | --- |
| CCGCCGG | -0.46 |
| CCGACAG | -0.453 |
| UCAGGGG | 1.46 |
| AACCCAG | -0.409 |
| GUGCACU | -0.18 |
| AGUUUCC | -0.635 |
| GCGAAAC | 0.0786 |
| UCGGCCG | -0.795 |
| UUUCCCG | -0.766 |
| CUAAGAA | -0.486 |
| CUAUGAA | -0.457 |
| CGCAUUU | -1.01 |
| AUGGUAA | 1.97 |
| CCCGAGU | -0.555 |
| CCGAUCA | -0.715 |
| CUUGCUA | -0.73 |
| CUCUGUU | -0.956 |
| AUUAAAG | 0.13 |
| UGCAUUC | -0.755 |
| AUAAUUA | -0.398 |
| CAUCCCC | -0.657 |
| GCAGAUG | 0.949 |
| UCGAGCA | -0.125 |

| Sequence | RNAcompete 7-mer binding Z-score |
| --- | --- |
| ACUUUUC | -0.726 |
| CAAGGAU | 1.42 |
| CCACGGC | -0.388 |
| AGUAGGC | 1.52 |
| UAGAUUC | -0.344 |
| UAAACCC | -0.675 |
| AGAUCGA | -0.202 |
| UCGGGCC | -0.358 |
| GCUGGCC | -0.497 |
| GAACAGA | 0.745 |
| GUGUUAC | -0.202 |
| AGAGCAU | -0.471 |
| GCCUGUU | -0.759 |
| UCCUAAU | -0.755 |
| AAAUAUG | 0.024 |
| UCAGGGA | 2.05 |
| UAGAUGG | 2.16 |
| AUUUGAC | -0.599 |
| UAGUCUC | -0.581 |
| AUCGUUU | -0.668 |
| AUGGCUA | 0.406 |
| UGAACCU | -0.683 |
| GCGGUGG | 3.01 |

| Sequence | RNAcompete 7-mer binding Z-score |
| --- | --- |
| AAUUAAU | -0.49 |
| AACGCCA | -0.533 |
| CGUGAAU | -0.289 |
| UCCAAAC | -0.643 |
| GGCAGGC | 1.52 |
| CUGCCAA | -0.843 |
| GAUACAA | 0.294 |
| ACUUUCA | -0.828 |
| CCUUGGU | -0.369 |
| AUUCAAG | -0.158 |
| GAGCGGU | 1.51 |
| AAUGAGU | 0.457 |
| CGGCUAG | -0.0415 |
| CCCUGCG | -0.413 |
| CGCUCGU | -0.46 |
| AAACUAU | -0.541 |
| GCAAGCC | -0.617 |
| CUGGACG | 0.352 |
| UGGAGAA | 1.73 |
| UCUCUUC | -0.759 |
| GAUUGGG | 3.64 |
| GCAAUAU | -0.187 |
| ACACCCG | -0.566 |

| Sequence | RNAcompete 7-mer binding Z-score |
| --- | --- |
| CACAUCU | -0.825 |
| ACAACGC | -0.686 |
| CCGAGCG | -0.00877 |
| CGGUUCG | -0.133 |
| CAGGUAA | 1.39 |
| GGGAACA | 3.06 |
| GGUUACG | 1.35 |
| GUGGUCG | 1.63 |
| UUCACCU | -0.825 |
| CCUGUAC | -0.774 |
| AAUCCAU | -0.522 |
| ACAGCGA | 0.37 |
| UUUAAGG | 0.315 |
| AUACGGU | 0.902 |
| CGAGUAG | 0.315 |
| AGUUGUG | 0.202 |
| CGUGUCA | -0.486 |
| GCAAAAA | -0.0306 |
| UAUCCGG | -0.413 |
| UGCAAUC | -0.526 |
| GUGAGCC | 0.159 |
| UCCGAUA | -0.628 |
| UCAAUAU | -0.391 |
